Measurements as given in PubChem BioAssay AID463173 (ICCB-Longwood Screening Facility, Harvard Medical School, 2010).
The whole screen tested about 52,000 compounds, of which about 4,300 (8.3%) were called active. Rule as the data show it: active = survival mostly below about 52% (no sharp cut-off); inactive = mostly above about 56%. Some of the results follow.

Tested on: DeltatarO mutant
Test: growth inhibition of S. aureus wild type versus tarO mutant, primary screen, teichoic acid synthesis inhibitors, RN4220, OD600 (AID 463173)
Settings: OD600, 18 h, active compounds read low, screened at 18.75 µg/mL (by protocol)

SMILES | survival
COc1cc2c(-c3ccccc3O)nc3c(c(C)nn3-c3ccccc3)c2cc1OC | inactive: 68%
CN1CCN(C(=O)C(C(=O)N2CCN(C)CC2)C23CC4CC(CC(C4)C2)C3)CC1 | inactive: 74%
CC(=O)N(CN1C(=O)CCC1=O)c1ccc(Cl)c(Cl)c1 | inactive: 75%
COc1cccc(CN2C(=O)c3ccccc3Sc3ccc(C(=O)NCCc4ccc(C)cc4)cc32)c1 | inactive: 78%
O=C(CN1CCCC1)N/N=C/c1c(O)ccc2ccccc12 | inactive: 74%
CC(O)c1nc2ccccc2n1Cc1ccccc1 (stereo not drawn) | inactive: 57%
COc1ccc(-c2csc(-c3nc(-c4ccc(Br)s4)cs3)n2)cc1F | inactive: 61%
COc1ccccc1C(=O)NCc1nnnn1-c1ccc(C)c(C)c1 | inactive: 92%
CCC1CCCCN1CCCNC(=O)c1c(O)nc2ccccn2c1=O (stereo not drawn) | inactive: 99%
CCCC1=Nc2cc(C(=O)NCCc3ccc(OCC)cc3)ccc2Sc2ccccc21 | inactive: 59%
Cn1c(-c2ccccc2)cnc1NC(=O)c1ccc(F)cc1 | inactive: 81%
Cc1ccc(CNC(=O)C(=O)NCC(c2cccnc2)N2CCN(c3ccc(F)cc3)CC2)cc1 (stereo not drawn) | inactive: 73%
CCCc1nn2c(=O)cc(COC(=O)c3cccs3)nc2s1 | inactive: 118%
CCOc1ccc(C(=O)c2cn(CC(=O)Nc3ccc4c(c3)OCCO4)c3ccc(OC)cc3c2=O)cc1 | inactive: 90%
Cc1ccccc1CNC(=O)Cn1ccc2cc(S(=O)(=O)N3CCCCC3)ccc21 | inactive: 119%
COc1ccccc1NC(=O)c1sc2nc(C)c(C(=O)Nc3ccc(C)cc3C)c(-c3ccc(Br)cc3)c2c1N | inactive: 89%
Cc1ccc(C)c(NC(=O)c2nc(S(C)(=O)=O)ncc2N(Cc2ccc(C(C)(C)C)cc2)Cc2ccco2)c1 | active: 55%
O=C(CCc1nc2ccccc2[nH]c1=O)OCc1ccc(Cl)cc1 | inactive: 98%
Cc1ccn2cc(C(=O)NC3CCCCC3)nc2c1 | inactive: 49%
CN1C(=O)Cc2cc(S(=O)(=O)N3CCN(c4cccc(C(F)(F)F)c4)CC3)ccc21 | inactive: 116%
Cc1cccc(C(=O)Nc2ccc(C(=O)OCc3cc(=O)n4c5c(sc4n3)CCCC5)cc2)c1 | inactive: 101%
CCOc1ccc(C(=O)CSc2nc3cc(C(=O)NC4CCCC4)ccc3c(=O)n2CC2CCCO2)cc1 (stereo not drawn) | active: 8%

SMILES | survival
CC(=O)c1ccc(NC(=O)c2ccc3c(c2)nnn3C2CCCC2)cc1 | inactive: 81%
COc1ccccc1C(=O)N1CCCCC1CCN1CCOCC1 (stereo not drawn) | inactive: 85%
Cc1cccc(NC(=O)Cn2cc(C(=O)C3CCCCC3)c3ccccc32)c1C | inactive: 63%
O=C(Nc1ccc(-c2nc3cc(NC(=O)c4ccccc4F)ccc3o2)cc1)c1ccccc1F | inactive: 90%
N#Cc1ccccc1NC(=O)CSc1ncn[nH]1 | inactive: 164%
COc1ccccc1NC(=O)Cn1c(=O)n(Cc2cccs2)c(=O)c2cccnc21 | inactive: 70%
CCN(CC)c1ccc2cc(-c3nc(-c4ccc(Cl)cc4Cl)cs3)c(=O)oc2c1 | active: 37%
Cc1nc(-c2ccccc2)sc1-c1ccc(SCC(=O)NCc2ccccc2)nn1 | inactive: 58%
CC(OC(=O)CCc1nc2ccccc2[nH]c1=O)C(=O)c1ccccc1 (stereo not drawn) | inactive: 96%
CCOC(=O)c1ccc(Nc2nc3nonc3nc2Nc2cccc(C)c2C)cc1 | active: -1%
CCOc1ccc(CCn2c3c(c(=O)[nH]c2=O)C(NC(=O)c2ccccc2)(C(F)(F)F)C(=O)N3)cc1OCC (stereo not drawn) | inactive: 68%
CCCCCn1c(=O)[nH]c2cc(C(=O)N3CCN(c4cc(Cl)ccc4C)CC3)ccc2c1=O | inactive: 67%
CCOC(=O)N1CCC(NC(=O)c2ccc3c(c2)N(Cc2cc(C)ccc2C)C(=O)c2ccccc2S3(=O)=O)CC1 | inactive: 55%
Cc1ccccc1C(=O)OCc1cc(=O)n2nc(C3CC3)sc2n1 | inactive: 89%
Cc1ccc(C(=O)OCc2cc(=O)n3nc(-c4cccs4)sc3n2)cc1 | inactive: 95%
CCOC(=O)c1c(S(=O)(=O)NCC(=O)Nc2cc(C)ccc2OC)c(C)n(C)c1C | inactive: 82%
CC(Sc1nnc(COc2ccccc2)n1-c1ccccc1)C(=O)O (stereo not drawn) | inactive: 78%
OC1CCN(C(c2cccc(C(F)(F)F)c2)c2nnnn2Cc2ccc(F)cc2)CC1 (stereo not drawn) | inactive: 76%
COc1ccc(NC(=O)CSc2nc3ccccc3nc2Cc2ccc(C)cc2)cc1Cl | inactive: 68%
COc1ccc(C)cc1NS(=O)(=O)c1ccc2c3c(cccc13)C(=O)N2 | inactive: 58%
N#Cc1ccccc1NC(=O)CNCC1CCCO1 (stereo not drawn) | inactive: 76%
COc1ccc(CNC(=O)CCC2N=C3c4ccccc4N=C(SCc4ccccc4F)N3C2=O)cc1 (stereo not drawn) | active: 37%

SMILES | survival
Cc1ccc(-c2nc(SCC(=O)NCC3CCCO3)c3c(=O)n(C)c(=O)n(C)c3n2)cc1 (stereo not drawn) | inactive: 99%
CCn1ccc(C(=O)Nc2sc(C(=O)OC)c(C)c2C(=O)OC)n1 | inactive: 89%
CCOC(=O)CSC1=Nc2ccccc2C2=NC(CCC(=O)NCc3ccc(OC)cc3)C(=O)N12 (stereo not drawn) | inactive: 74%
Cc1ccccc1N1CCN(S(=O)(=O)c2ccccc2)CC1 | active: 28%
Oc1c(C(c2ccccc2F)N2CCN(c3ccccc3F)CC2)sc2nc(-c3ccco3)nn12 (stereo not drawn) | inactive: 87%
CCc1ccc(OCC(=O)Nc2cc(-c3ccc(C)cc3)no2)cc1 | inactive: 85%
CCOc1ccccc1C(=O)Nc1nncs1 | inactive: 81%
COc1ccc(CNC(=O)CSc2ncc3c(n2)-c2cc(Cl)ccc2N(Cc2ccccc2)S3(=O)=O)cc1 | inactive: 102%
Cc1ccc(Cl)cc1N1CCN(C(=O)Cn2c(-c3cccs3)cc3cc(F)ccc32)CC1 | inactive: 98%
CCOC(=O)Cn1c(=O)cc(C(F)(F)C(F)(F)F)c2c(C)nn(CC)c21 | inactive: 73%
COc1cccc(-n2c(-c3ccccc3F)nc3c(cnn3-c3ccc(C)cc3)c2=O)c1 | inactive: 75%
CCOC(=O)C(Cc1ccccc1)NC(=O)CCc1c(C)nc2nc(C)nn2c1C (stereo not drawn) | inactive: 84%
COc1ccc(NC(=O)c2sc3nc4c(cc3c2N)CCCCCC4)cc1 | inactive: 127%
COCCNC(=O)CSc1nc2cc3c(cc2c(=O)n1CCCC(=O)NCc1ccc2c(c1)OCO2)OCO3 | inactive: 84%
Cc1ccccc1OCc1nc2c3cnn(-c4ccccc4F)c3ncn2n1 | inactive: 75%
Cc1ccccc1NC(=O)CSc1nc(-c2ccccc2)cn1-c1ccccc1F | inactive: 79%
O=C(NC1CCCC1)c1ccc2c(=O)n(Cc3ccccc3)c(SCc3cccc([N+](=O)[O-])c3)nc2c1 | inactive: 106%
CCOc1ccccc1NC(=O)C(=O)NCCc1sc2nc(-c3ccc(OC)cc3)nn2c1C | inactive: 83%
Cc1ccc(NC(=O)NCCOCCn2c(=O)oc3ccccc32)cc1C | inactive: 86%
CCOc1ccc(CNC(=O)c2ccccc2NC(=O)c2nsc3ccccc23)cc1 | active: -5%
COC(=O)c1sccc1S(=O)(=O)N1CCN(c2ccc(C)cc2C)CC1 | inactive: 83%
CCOc1ccc(CNC(=O)C2CCN(C(=O)N3CC(CC)Oc4ccccc43)CC2)cc1 (stereo not drawn) | inactive: 106%

SMILES | survival
Cc1c(Cl)cccc1NC(=O)N1CCOc2ccccc21 | inactive: 90%
Cc1ccc(OCC(=O)Nc2ccc3nc(SCC(=O)Nc4ccc(C)cc4C)sc3c2)cc1 | inactive: 73%
S=c1[nH]nc(Cc2ccccc2)n1Cc1ccccc1 | inactive: 83%
CC(C)(C)c1ccc(C(=O)NC2(C(F)(F)F)NC(=O)N(CCc3ccccc3)C2=O)cc1 (stereo not drawn) | inactive: 50%
COc1cccc(NC(=O)CSc2ncc3c(n2)-c2ccc(Cl)cc2N(C)S3(=O)=O)c1 | active: 37%
CCCNC(=O)c1ccccc1NC(=O)c1nsc2ccccc12 | inactive: 77%
CCCN(CCC)CCCNC(=O)C1CCN(c2nc3ccc(CC)cc3s2)CC1 | inactive: 54%
N#C/C(=C\c1cccc(F)c1)c1nc(-c2cc3c(ccc4ccccc43)oc2=O)cs1 | inactive: 83%
CCOc1cc(C2c3c(oc4cc(C)cc(C)c4c3=O)C(=O)N2CCO)ccc1O (stereo not drawn) | inactive: 68%
CCOc1ccccc1NS(=O)(=O)c1ccc2[nH]c3c(c2c1)CCCCC3 | inactive: 84%
COc1ccc(S(=O)(=O)N(CC(=O)Nc2cc(C)ccc2OC)Cc2ccccc2)cc1 | inactive: 53%
COC(=O)c1ccc(NC(=O)CN2CCN(S(=O)(=O)c3ccc(Br)cc3)CC2)cc1 | inactive: 89%
O=c1c(Cl)c(NC2CC2)cnn1-c1ccccc1 | inactive: 68%
Cc1ccc(Cn2c(=O)n(-c3ccc(C)cc3)c(=O)c3c2c2cc(C)ccc2n3C)cc1 | active: 52%
Cc1c(-c2ccc(Cl)cc2)c(=O)oc2c(CN3CCN(CCO)CC3)c(O)ccc12 | inactive: 81%
CCOc1ccc(CCNC(=O)c2cc3c(=O)n(C)c4ccccc4c3n2C)cc1OCC | inactive: 87%
Cc1ccc(NC(=O)C(=O)NCC(c2ccc3c(c2)OCO3)N2CCN(C)CC2)c(C)c1 (stereo not drawn) | inactive: 91%
Cc1ccc(NC(=O)C(Cc2ccccc2)NS(=O)(=O)c2ccc3c(c2)CCC(=O)N3)cc1 (stereo not drawn) | inactive: 109%
CS(=O)(=O)c1cccc(-c2nnc(NC(=O)c3ccc4c(c3)OCCO4)o2)c1 | inactive: 76%
CC(C)(C)c1ccc(Oc2nc3ccccn3c(=O)c2/C=C(\C#N)c2nc3ccccc3s2)cc1 | inactive: 58%
CCc1ccc(NC(=O)CC2C(=O)N(c3ccc(C)cc3)C(=O)N2C2CCCC2)cc1 (stereo not drawn) | inactive: 64%
Oc1ccc(-c2nnc(SCC3CCCCC3)o2)cc1 | inactive: 89%
